Experimental data as given in the supplement of paper PMC5499739.
Over roughly 16,000 sequences, “Z-score” has its median near -0.37; the highest 2% begin near 3.2. The list shows a part of the results.

What follows are sequences tested on RBM10 RRM1-ZnF (GST-tagged construct) (assay: RNAcompete 7-mer binding Z-score; higher = stronger binding preference).
How it was run: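 GST-tagged RBM10 constructs (20 pmol) and a designed pool of 241 399 RNAs up to 41 nt (1.5 nmol) were allowed to bind for 30 min at 4°C in 1 ml Hepes pH 7.8 buffer with glutathione Sepharose beads. After four 2-min washes at 4°C, bound RNA was identified by microarray hybridisation. Enrichment was scored per heptamer motif as a one-sided Z-score across the probes containing it.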

Sequence	RNAcompete 7-mer binding Z-score
UUAGGAC	0.647
UCGUGGG	2.53
CAGCUGA	-0.308
GUCGUGG	1.38
CUCACAG	-0.285
ACAGGGA	3
CGCAGGA	0.761
CCGGCAU	-0.805
AGUGGUC	0.413
CCCGUAG	-0.441
AUUUAGG	0.677
AGGAAAA	1.71
CCAGAGG	0.449
CCCAGCG	-0.188
GUGCGUG	0.813
UGCUUCC	-0.724
UCAGUGG	0.946
GACAGAU	-0.155
ACCAGCG	-0.184
GGACGAU	0.673
AUUAACG	-0.373
UCCGAAC	-0.626
GUCUAGU	-0.279
AUACAGA	-0.119
CAAACAA	-0.34

Sequence	RNAcompete 7-mer binding Z-score
GGUAGCU	0.797
UGCCAUC	-0.75
CAUCAGG	0.228
GCCAUGC	-0.646
CCUUGUG	-0.707
GCCCUGA	-0.61
AUGGGGG	4.12
UACUGCA	-0.604
AGUCCCG	-0.308
AUUGAUC	-0.392
UCUCGUC	-0.701
AAGCAUA	-0.214
ACCAAGU	-0.402
GAGCAUG	0.358
ACAUAGA	-0.0479
AGCCCAU	-0.912
CACAUUA	-0.6
AACCGAU	-0.623
GAGAUCG	0.459
CAUAAAA	-0.49
CCAAAUA	-0.594
UAAUCAA	-0.448
GAAACAU	-0.249
CCUGUGC	-0.552
UCAUGGA	0.491

Sequence	RNAcompete 7-mer binding Z-score
GUAGCGG	1.77
AGGGGGA	2.47
AUAAUGU	-0.0317
CGAGGCA	0.605
CCGGACA	-0.513
CGCCCGU	-0.376
UCGGGGC	1.65
CCCAAAG	-0.61
AUCAAAA	-0.327
GUCGUAU	-0.00246
AAGGAAG	3.84
GGGGUAC	2.57
AAUCUUU	-0.763
GUAUCAC	-0.0512
GUUAGUU	0.03
AUGCGCG	-0.165
UCGUGAA	-0.217
UUCUUUC	-0.808
ACUUCAG	-0.539
UACGAUA	-0.279
UGCGGCG	0.729
AUGCUCU	-0.828
GUCAACG	-0.0155
UAGUGCG	0.478
AUUUUGC	-0.993

Sequence	RNAcompete 7-mer binding Z-score
CGAAGGC	0.524
CUACGUU	-0.542
CUAGAGC	-0.366
AUGGUUG	2.51
ACAAAUG	0.0788
GUUCCGA	-0.565
GAGGCGU	0.725
AGAGAUG	1.04
ACUGCAC	-0.464
GUCUCUC	-0.659
UCUUGAA	-0.785
AGAUGCC	-0.753
UGCCCUU	-0.789
AACCUGU	-0.665
CACUAGA	-0.194
AAUCGCA	-0.386
UUCAAGG	0.056
AAGGGUC	1.72
AAUUUAA	-0.467
UUGCCCA	-0.633
CGGAUCC	-0.301
GCGCUAA	-0.535
GCAGAGA	0.979
UUUCCAG	-0.737
UACAUCU	-0.72

Sequence	RNAcompete 7-mer binding Z-score
AGGUGCC	0.261
AAGAUUU	-0.626
CGUCCCC	-0.373
CAAUCUA	-0.626
GAUAUCA	-0.269
CACCCGU	-0.516
UUCACAC	-0.678
UGGACGU	1.36
ACAUCUU	-0.893
AACGUCC	-0.818
AGGGUUU	2.56
CGGCGCC	-0.272
GUUGUGG	1.99
CUCGUAU	-0.704
GUGAAAA	0.556
GAAUAUC	-0.418
CCUCAGG	-0.363
UUUCUCU	-0.652
GGAUAAG	2.69
UACGGCU	-0.308
GGUUCUA	-0.162
UGGCACC	0.0723
CUAGUAU	-0.37
UUCCCCA	-0.633
GUUUCGU	-0.191

Sequence	RNAcompete 7-mer binding Z-score
GCUGCCC	-0.24
GCUCGGU	-0.129
GCAUGCU	-0.613
UGUAGGA	1.7
UCGCCGA	-0.668
CUGCAAU	-0.724
AAUGCAA	-0.139
AUACAAA	-0.435
GGCAAUC	-0.171
CGGUAUU	0.179
ACCUGGC	-0.613
CAAAGAU	-0.347
AGUCCCC	-0.357
CGACACU	-0.587
UUAUGGU	0.537
UAAGCUA	-0.347
AAUUUGU	-0.571
GCUAACA	-0.399
UGAUGUG	0.829
CGCUUUC	-0.789
GUGCCGC	-0.0837
AGUUCGU	-0.422
AUGGACC	0.16
UUGGUCU	-0.217
AUUUACU	-0.73

Sequence	RNAcompete 7-mer binding Z-score
GCGAUCC	-0.857
GUUCCUG	-0.607
UCUUAAU	-0.678
CCUAUUG	-0.474
CAGUCUU	-0.925
UUUUGUC	-0.581
GGGUACA	2.7
AACAUAG	0.03
UACAACG	-0.0934
AACGGCA	0.42
GUAUCCC	-0.552
GAGUGAA	1.07
UUAGCCA	-0.694
AGCAGUG	0.543
CGUGGUU	1.01
GCCUAGU	-0.337
ACUCUUU	-0.844
UGUACUG	-0.275
UGGCUUG	0.14
UUUCUAC	-0.863
AAUACUU	-0.756
UCAUAUA	-0.487
ACAUCCA	-0.72
AUGCGAU	0.0138
ACCGAAA	-0.733

Sequence	RNAcompete 7-mer binding Z-score
AUGCUUC	-0.746
GCAUCCG	-0.412
AACACAU	-0.415
GCCGGGU	1.49
CAGAAGU	-0.0414
ACAUACU	-0.513
UCACCAU	-0.909
GUGCGUU	0.173
ACUCGCC	-0.74
CCAAAGC	-0.867
AGAGAAC	-0.139
GCUCAUG	-0.454
CACUGUU	-0.574
AUCUAAG	-0.451
CCCCAGU	-0.438
UUGAGAA	0.231
CGUAUCA	-0.629
UCUACGU	-0.662
CGUAUAU	-0.35
GGGAAUA	3.09
CUCGAAU	-0.62
CGCGGAU	0.514
CUCUUGU	-0.811
UUGAGCU	-0.444
AAGCUUU	-0.727

Sequence	RNAcompete 7-mer binding Z-score
GUAGUAG	0.868
AUAACGA	-0.61
AGGCGGC	0.15
CUUGCGU	-0.542
CCACUGC	-0.366
GGAAACU	0.404
AGUUUAG	0.0235
AAUCAAA	-0.425
UGACUAU	-0.435
GGCCGAG	0.462
CGCCUUG	-0.451
CAUGUAA	-0.308
GGGCCUC	0.03
GCUCCCA	-0.574
UGUAUUA	-0.428
CAUAAUA	-0.766
GUGUGCA	0.371
GAUACCU	-0.704
GAUGAGC	0.894
UCGCAUC	-0.707
ACUUAUA	-0.685
CCGGAUA	-0.126
CACACAC	-0.555
UGGAAAG	2.84
GAGCCUG	-0.539

Sequence	RNAcompete 7-mer binding Z-score
GCCGAUA	-0.467
GUUCAAC	-0.457
UGCAUCU	-0.802
GUCCCCG	-0.282
ACGUUAA	-0.376
UACCGCG	-0.246
CGCUAAG	-0.418
UAUACCU	-0.753
GCCCGGA	-0.331
GGUGCUA	1.43
GUUUACG	-0.386
AUAUGAU	-0.0512
GAAUAGU	0.137
ACGCUGC	-0.412
CCAACCA	-0.672
GGUGGUG	3.56
UCCUAUA	-0.727
CUGCUCU	-0.798
CCAUUGC	-0.818
UGUCGCA	-0.5
ACUGGAG	1.2
CUACGAG	-0.383
GUUCUCA	-0.561
UUUCGGU	-0.162
CUCAUCA	-0.737

Sequence	RNAcompete 7-mer binding Z-score
UAUUAAU	-0.496
AGGAACG	1.28
UAGAUUA	-0.318
GGCUGGA	0.969
CGUCCUU	-0.772
GAUGUUC	-0.704
AAGUUAG	0.469
GGCGCAG	1.23
GCACAUC	-0.451
AAGGAAC	2.26
GUGCUUU	-0.558
AGUCUUA	-0.753
AGGUGGC	1.44
UUACGCA	-0.584
AUUCCAU	-0.73
CGCGGCU	-0.139
UGAGCGG	2.38
UGAGCUU	-0.451
UAUAUGA	-0.337
UUUCAAU	-0.73
CCACGCC	-0.519
GUUAACC	-0.383
GGCAGCG	1.25
CCGUCAC	-0.746
CGCCCGC	-0.431

Sequence	RNAcompete 7-mer binding Z-score
GUACAAU	-0.126
UCUAGCC	-0.789
GCUUGGU	0.0885
UAGAACG	0.03
CGCAUGC	-0.402
GUGAGUC	0.27
AACGGAG	1.94
CAAGAGG	0.914
CCAUACC	-0.792
CUUUGAC	-0.867
ACACAGU	-0.311
AUGAUUC	-0.552
AAAACAA	-0.0902
UGAAACA	-0.298
UAGCUGA	0.0528
CCGGCAA	-0.548
AUAAACC	-0.597
AUGCCCA	-0.535
GGCUAUA	0.0105
GGGGACU	2
CGUGCCA	-0.418
UCCACCA	-0.672
GUCCUUG	-0.483
CUACAAG	-0.483
AGACCAU	-1.03

Sequence	RNAcompete 7-mer binding Z-score
AACAGGC	0.797
GCGGGAC	1.51
UCGAUUA	-0.578
GUUUGUC	-0.168
CCCCGAG	-0.0155
GACUGUU	-0.678
GUUGAGC	0.706
CACGGUG	0.397
GUCAUCC	-0.672
UUGGUAG	1.74
CGGCCCC	-0.441
CGCAUGG	0.543
GAUUUGA	-0.0155
GAUCGAG	0.41
GGUAGGU	3.31
ACUUGAU	-0.529
AAACGCG	-0.197
CAUAACA	-0.444
CCGGAUC	-0.405
GUCGUGU	-0.0382
CAUUGAU	-0.464
CGUCCAU	-0.639
AGGCAAC	-0.0479
ACCACUA	-0.646
AACAAGA	0.0918

Sequence	RNAcompete 7-mer binding Z-score
CCCUGGU	-0.337
CAGCUAC	-0.509
UGAGCUA	-0.00896
CGAGAGG	1.25
UAAUCAG	-0.207
GUAUACU	-0.519
CACGCGA	-0.373
GCAACUU	-0.483
GGUCUCG	0.163
UGGAUAA	1.15
GCGGGGA	3.67
GCACGUC	-0.379
ACAAGCG	0.137
CCAUUUG	-1
CCGGGCA	-0.0707
AUGACCA	-0.402
UGGUUCG	0.231
AAUCACA	-0.496
AUUGAGA	0.0625
CACAGUG	-0.00571
UAGCUGU	-0.578
UGCUCCU	-0.73
GUGUUUG	0.774
CUGAGAU	-0.36
CGCCUCA	-0.662

Sequence	RNAcompete 7-mer binding Z-score
AACUUGG	0.124
GCAACUA	-0.376
ACGUUUC	-0.837
CUUACAG	-0.6
CGCGUCA	-0.298
UUACAGG	0.491
AGCCAAG	-0.298
UCUUGAC	-0.873
UGAACCC	-0.448
AUUCUGU	-0.766
GCAAUCU	-0.613
UUACAUG	-0.405
UACAAGG	1.06
UCGUGCU	-0.607
CACGGAC	0.183
CAGCCUU	-0.808
CGUCGCC	-0.659
